Reference: paper PMC12578348
No constants are given. Whether binding was seen depends on the method and setting. In cells and extracts the contact can be indirect. Some results given as binding are weak or reduced against the parent protein; the word gives no strength. For part of these data: Tags and fused reporters may be left off the sequences shown.

By UniProt entry, the sequences of proteins in these tests, tags left out. Residues count along the entry.
UniProt P11142: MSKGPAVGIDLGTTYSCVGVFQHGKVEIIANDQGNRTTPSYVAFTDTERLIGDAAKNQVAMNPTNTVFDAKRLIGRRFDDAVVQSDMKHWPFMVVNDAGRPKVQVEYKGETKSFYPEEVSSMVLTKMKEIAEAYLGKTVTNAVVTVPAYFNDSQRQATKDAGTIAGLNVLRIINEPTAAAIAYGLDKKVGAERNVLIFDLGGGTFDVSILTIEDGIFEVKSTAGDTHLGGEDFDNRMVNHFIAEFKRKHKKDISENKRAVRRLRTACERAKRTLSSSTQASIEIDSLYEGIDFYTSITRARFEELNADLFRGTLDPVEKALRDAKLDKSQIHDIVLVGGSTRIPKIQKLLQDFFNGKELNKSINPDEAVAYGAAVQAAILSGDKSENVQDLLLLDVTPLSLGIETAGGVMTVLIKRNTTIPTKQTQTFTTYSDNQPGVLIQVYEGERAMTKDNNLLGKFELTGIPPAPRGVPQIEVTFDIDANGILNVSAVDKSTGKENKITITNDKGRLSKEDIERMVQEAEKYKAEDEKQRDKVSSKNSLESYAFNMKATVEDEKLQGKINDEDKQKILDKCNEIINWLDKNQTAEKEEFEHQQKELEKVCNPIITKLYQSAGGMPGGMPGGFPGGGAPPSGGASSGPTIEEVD
UniProt P13473, residues 29-410: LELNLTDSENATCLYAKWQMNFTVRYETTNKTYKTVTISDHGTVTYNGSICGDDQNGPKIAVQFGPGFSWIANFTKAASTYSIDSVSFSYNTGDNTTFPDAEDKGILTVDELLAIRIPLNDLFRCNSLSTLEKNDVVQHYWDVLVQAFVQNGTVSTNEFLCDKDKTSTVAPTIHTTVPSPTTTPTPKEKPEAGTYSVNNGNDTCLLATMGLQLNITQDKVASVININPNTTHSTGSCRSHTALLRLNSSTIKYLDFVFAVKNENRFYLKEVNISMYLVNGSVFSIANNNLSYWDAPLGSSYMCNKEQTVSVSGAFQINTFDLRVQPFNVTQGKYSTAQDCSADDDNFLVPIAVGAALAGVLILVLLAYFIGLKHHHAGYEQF
UniProt P03427: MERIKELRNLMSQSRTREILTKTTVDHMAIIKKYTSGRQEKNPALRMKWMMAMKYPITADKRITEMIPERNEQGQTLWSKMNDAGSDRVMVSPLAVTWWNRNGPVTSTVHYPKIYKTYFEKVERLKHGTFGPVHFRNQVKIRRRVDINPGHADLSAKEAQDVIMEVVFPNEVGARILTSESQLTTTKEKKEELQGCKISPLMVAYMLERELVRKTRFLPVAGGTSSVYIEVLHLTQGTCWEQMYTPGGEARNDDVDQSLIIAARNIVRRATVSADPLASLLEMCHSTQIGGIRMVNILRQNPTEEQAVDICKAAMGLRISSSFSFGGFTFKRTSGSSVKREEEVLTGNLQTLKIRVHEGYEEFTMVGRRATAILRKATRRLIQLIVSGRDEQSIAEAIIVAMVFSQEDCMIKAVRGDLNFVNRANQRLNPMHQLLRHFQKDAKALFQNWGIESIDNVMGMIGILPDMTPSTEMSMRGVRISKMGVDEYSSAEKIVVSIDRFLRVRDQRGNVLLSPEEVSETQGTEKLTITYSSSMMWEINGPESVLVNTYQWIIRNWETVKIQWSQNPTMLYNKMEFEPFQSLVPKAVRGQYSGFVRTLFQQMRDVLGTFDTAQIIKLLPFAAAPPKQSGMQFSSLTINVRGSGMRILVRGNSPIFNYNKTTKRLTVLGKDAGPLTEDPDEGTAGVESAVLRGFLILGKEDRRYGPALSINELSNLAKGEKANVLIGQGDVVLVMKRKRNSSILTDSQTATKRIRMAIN
UniProt P03470: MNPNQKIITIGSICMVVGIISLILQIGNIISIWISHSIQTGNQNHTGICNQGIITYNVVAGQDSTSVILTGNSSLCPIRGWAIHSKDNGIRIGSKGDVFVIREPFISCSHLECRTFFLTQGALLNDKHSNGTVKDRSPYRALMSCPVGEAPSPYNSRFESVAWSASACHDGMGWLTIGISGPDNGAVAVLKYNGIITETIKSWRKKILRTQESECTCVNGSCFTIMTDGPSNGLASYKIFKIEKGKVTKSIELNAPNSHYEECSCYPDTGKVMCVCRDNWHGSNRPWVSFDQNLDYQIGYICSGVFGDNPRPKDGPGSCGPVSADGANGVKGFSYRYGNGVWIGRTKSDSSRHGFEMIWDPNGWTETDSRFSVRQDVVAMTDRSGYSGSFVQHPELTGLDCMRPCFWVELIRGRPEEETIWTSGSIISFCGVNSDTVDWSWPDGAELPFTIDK
UniProt P03454, residues 18-565: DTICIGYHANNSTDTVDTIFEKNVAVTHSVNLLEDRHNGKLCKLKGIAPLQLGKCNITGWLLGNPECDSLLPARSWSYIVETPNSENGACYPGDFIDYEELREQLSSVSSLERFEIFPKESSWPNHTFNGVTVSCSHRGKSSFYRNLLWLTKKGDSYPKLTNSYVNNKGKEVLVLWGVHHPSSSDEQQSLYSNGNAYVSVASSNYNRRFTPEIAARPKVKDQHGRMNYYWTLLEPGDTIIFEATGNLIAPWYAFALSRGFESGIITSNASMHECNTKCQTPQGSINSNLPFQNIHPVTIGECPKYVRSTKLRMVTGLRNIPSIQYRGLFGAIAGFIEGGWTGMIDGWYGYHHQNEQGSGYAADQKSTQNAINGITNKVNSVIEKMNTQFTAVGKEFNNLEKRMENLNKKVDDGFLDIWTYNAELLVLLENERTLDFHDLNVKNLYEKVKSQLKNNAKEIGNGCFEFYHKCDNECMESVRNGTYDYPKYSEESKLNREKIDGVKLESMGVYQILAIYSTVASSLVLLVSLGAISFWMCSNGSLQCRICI
UniProt P03430: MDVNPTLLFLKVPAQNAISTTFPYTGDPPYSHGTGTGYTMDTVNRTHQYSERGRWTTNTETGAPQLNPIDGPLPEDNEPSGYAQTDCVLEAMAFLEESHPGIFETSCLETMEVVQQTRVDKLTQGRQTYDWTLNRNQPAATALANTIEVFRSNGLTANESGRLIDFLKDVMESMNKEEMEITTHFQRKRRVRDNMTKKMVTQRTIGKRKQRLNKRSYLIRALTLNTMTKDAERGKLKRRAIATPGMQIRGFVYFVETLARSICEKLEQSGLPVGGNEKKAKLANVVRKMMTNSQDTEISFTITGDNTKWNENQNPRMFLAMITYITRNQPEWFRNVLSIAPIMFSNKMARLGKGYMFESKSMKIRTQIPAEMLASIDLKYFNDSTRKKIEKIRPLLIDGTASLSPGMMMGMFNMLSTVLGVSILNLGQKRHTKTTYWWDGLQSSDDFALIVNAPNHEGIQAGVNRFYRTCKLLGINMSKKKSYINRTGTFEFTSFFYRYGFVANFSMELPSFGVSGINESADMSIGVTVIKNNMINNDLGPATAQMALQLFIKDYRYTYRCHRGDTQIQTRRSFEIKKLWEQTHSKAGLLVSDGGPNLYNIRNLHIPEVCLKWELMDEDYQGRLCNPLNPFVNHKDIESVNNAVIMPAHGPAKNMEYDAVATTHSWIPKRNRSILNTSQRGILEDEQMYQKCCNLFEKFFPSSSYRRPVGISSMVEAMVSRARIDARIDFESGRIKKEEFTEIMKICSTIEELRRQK
UniProt P05777: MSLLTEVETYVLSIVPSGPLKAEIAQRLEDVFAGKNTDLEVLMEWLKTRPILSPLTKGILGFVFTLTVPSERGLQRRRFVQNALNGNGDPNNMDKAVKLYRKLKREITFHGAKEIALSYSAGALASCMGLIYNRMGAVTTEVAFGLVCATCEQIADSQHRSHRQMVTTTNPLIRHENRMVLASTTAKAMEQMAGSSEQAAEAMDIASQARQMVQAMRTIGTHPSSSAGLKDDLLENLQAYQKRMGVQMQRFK
UniProt P15682: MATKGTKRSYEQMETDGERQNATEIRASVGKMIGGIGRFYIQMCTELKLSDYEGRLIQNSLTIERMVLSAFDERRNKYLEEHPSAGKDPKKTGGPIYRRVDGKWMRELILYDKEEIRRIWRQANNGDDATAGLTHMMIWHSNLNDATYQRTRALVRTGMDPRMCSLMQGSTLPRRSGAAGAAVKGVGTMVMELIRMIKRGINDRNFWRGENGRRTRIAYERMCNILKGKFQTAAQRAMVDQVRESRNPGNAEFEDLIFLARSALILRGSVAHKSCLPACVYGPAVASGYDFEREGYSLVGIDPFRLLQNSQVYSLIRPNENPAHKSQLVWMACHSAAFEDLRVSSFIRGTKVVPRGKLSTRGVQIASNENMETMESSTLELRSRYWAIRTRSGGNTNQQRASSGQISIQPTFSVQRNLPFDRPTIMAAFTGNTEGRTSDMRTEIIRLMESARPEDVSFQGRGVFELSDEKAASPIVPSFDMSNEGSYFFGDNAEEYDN

Legend:
Test in all cases: co-IP
[1] = target: HSC70-Myc (heat shock cognate protein 70, Myc-tagged) (UniProt P11142)
[2] = target: LAMP-2A-Myc (lysosomal-associated membrane protein type 2A, Myc-tagged) (UniProt P13473)
[3] = target: T1, TRIM45-V5 (tripartite motif containing 45, V5-tagged) (human) (UniProt Q9H8W5)
T1 sequence: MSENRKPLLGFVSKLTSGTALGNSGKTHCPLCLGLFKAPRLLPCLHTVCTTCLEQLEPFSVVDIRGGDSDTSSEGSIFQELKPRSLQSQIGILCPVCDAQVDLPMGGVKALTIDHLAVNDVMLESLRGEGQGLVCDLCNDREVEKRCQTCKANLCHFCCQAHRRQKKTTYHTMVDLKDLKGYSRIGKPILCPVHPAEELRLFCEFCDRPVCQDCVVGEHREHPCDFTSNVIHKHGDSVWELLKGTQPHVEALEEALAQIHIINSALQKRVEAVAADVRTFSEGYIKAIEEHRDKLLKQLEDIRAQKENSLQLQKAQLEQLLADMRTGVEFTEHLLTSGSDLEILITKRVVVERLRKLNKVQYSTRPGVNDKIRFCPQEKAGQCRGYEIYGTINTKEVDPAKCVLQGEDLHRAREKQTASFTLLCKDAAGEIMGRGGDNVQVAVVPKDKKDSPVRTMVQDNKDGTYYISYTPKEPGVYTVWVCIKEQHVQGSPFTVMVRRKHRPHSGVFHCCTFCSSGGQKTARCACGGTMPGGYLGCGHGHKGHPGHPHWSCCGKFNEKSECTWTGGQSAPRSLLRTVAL

[4] = target: T2, endogenous TRIM45 (human (endogenous in A549)) (UniProt Q9H8W5)
T2 sequence: T1 sequence

[5] = target: PB2 (polymerase basic protein 2) of A/WSN/1933 (WSN, H1N1), expressed from pCAGGS (influenza A virus A/WSN/1933 (H1N1)) (UniProt P03427)

For “PB2 of WSN (H1N1) virus, made in infected cells (from UniProt P03427 1-759)”, the binding [1] was “binds”, the binding [2] was “binds” and the binding [3] was “binds”. For the same substance, the binding [4] was “binds”.
For “NA-Myc of WSN (H1N1) virus (from UniProt P03470 1-453)”, the binding [3] was “no binding”.
For “HA-Myc of WSN (H1N1) virus (from UniProt P03454)”, the binding [3] was “no binding”.
For “V5-tagged wild-type PB2 of WSN (H1N1) (from UniProt P03427 1-759)”, the binding [1] was “binds” and the binding [2] was “binds”.
With “PB1-Flag of WSN (H1N1) virus (from UniProt P03430 1-757)” the binding [3] was “no binding”.
For “PB2 (polymerase basic protein 2) of A/WSN/1933 (WSN, H1N1), expressed from pCAGGS (from UniProt P03427 1-759)”, the binding [1] was “binds”, the binding [2] was “binds” and the binding [3] was “binds”.
For “coiled-coil (CC) domain of TRIM45 with a C-terminal GST tag (from UniProt Q9H8W5 281-335) (domain or fragment)”, the binding [5] was “binds”.
“M1-GST of WSN (H1N1) virus (from UniProt P05777 1-252)” was tested, and the binding [3] was “no binding”.
For “NP of WSN (H1N1) virus (from UniProt P15682 1-498)”, the binding [3] was “no binding”.
